Laboratory results published in the supplement of paper PMC8728848.
Some of the results follow.

Tests used:
Assay in all cases: glycan array binding signal (z-score within array); higher = stronger binding
Conditions in all cases: glycan notation: IUPAC condensed, linker removed
GlcNAc(b1-4)GlcNAc = molecular target: GlcNAc(b1-4)GlcNAc
Method in brief: (§1)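 Columns mapping to the same glycan were averaged after glycan names were converted to IUPAC-condensed notation. The data come from 3228 arrays in the Consortium for Functional Glycomics database, limited to those with an available protein sequence. Binding is reported as a within-array Z-score averaged across arrays of one protein sequence and across linkers.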

[1] = molecular target: GlcNAc(b1-4)GlcNAc(b1-4)GlcNAc
Method in brief: as §1

[2] = molecular target: GlcNAc(b1-4)GlcNAc(b1-4)GlcNAc(b1-4)GlcNAc(b1-4)GlcNAc
Method in brief: as §1

[3] = molecular target: GlcNAc(b1-4)GlcNAc(b1-4)GlcNAc(b1-4)GlcNAc(b1-4)GlcNAc(b1-4)GlcNAc
Method in brief: as §1

[4] = molecular target: GlcNAc(b1-4)[GlcNAc(b1-6)]GalNAc
Method in brief: as §1

[5] = molecular target: GlcNAc(b1-6)Gal(b1-4)GlcNAc
Method in brief: as §1

GlcNAc(b1-6)GalNAc = molecular target: GlcNAc(b1-6)GalNAc
Method in brief: as §1

GlcNAc3Prop(b1-4)GlcNAc = molecular target: GlcNAc3Prop(b1-4)GlcNAc
Method in brief: as §1

[6] = molecular target: GlcNAc6S(b1-3)Gal(b1-4)GlcNAc
Method in brief: as §1

Kdn(a2-3)Gal(b1-3)GalNAc = molecular target: Kdn(a2-3)Gal(b1-3)GalNAc
Method in brief: as §1

Kdn(a2-3)Gal(b1-3)GlcNAc = molecular target: Kdn(a2-3)Gal(b1-3)GlcNAc
Method in brief: as §1

Kdn(a2-3)Gal(b1-4)Glc = molecular target: Kdn(a2-3)Gal(b1-4)Glc
Method in brief: as §1

Kdn(a2-3)Gal(b1-4)GlcNAc = molecular target: Kdn(a2-3)Gal(b1-4)GlcNAc
Method in brief: as §1

[7] = molecular target: Kdn(a2-3)Gal(b1-4)[Fuc(a1-3)]GlcNAc
Method in brief: as §1

Kdn(a2-6)Gal(b1-4)GlcNAc = molecular target: Kdn(a2-6)Gal(b1-4)GlcNAc
Method in brief: as §1

[8] = molecular target: Man(a1-2)Man(a1-2)Man(a1-3)Man
Method in brief: as §1

[9] = molecular target: Man(a1-2)Man(a1-2)Man(a1-6)[Man(a1-3)]Man
Method in brief: as §1

Man(a1-2)Man(a1-3)Man = molecular target: Man(a1-2)Man(a1-3)Man
Method in brief: as §1

[10] = molecular target: Man(a1-2)Man(a1-3)[Man(a1-2)Man(a1-6)]Man
Method in brief: as §1

[11] = molecular target: Man(a1-2)Man(a1-3)[Man(a1-2)Man(a1-6)]Man(a1-6)[Man(a1-2)Man(a1-2)Man(a1-3)]Man
Method in brief: as §1

[12] = molecular target: Man(a1-2)Man(a1-3)[Man(a1-2)Man(a1-6)]Man(a1-6)[Man(a1-2)Man(a1-2)Man(a1-3)]Man(b1-4)GlcNAc(b1-4)GlcNAc
Method in brief: as §1

[13] = molecular target: Man(a1-2)Man(a1-3)[Man(a1-6)]Man(a1-6)[Man(a1-2)Man(a1-3)]Man(b1-4)GlcNAc(b1-4)GlcNAc
Method in brief: as §1

[14] = molecular target: Man(a1-2)Man(a1-6)[Man(a1-3)]Man(a1-6)[Man(a1-2)Man(a1-2)Man(a1-3)]Man
Method in brief: as §1

[15] = molecular target: Man(a1-2)Man(a1-6)[Man(a1-3)]Man(a1-6)[Man(a1-2)Man(a1-2)Man(a1-3)]Man(b1-4)GlcNAc(b1-4)GlcNAc
Method in brief: as §1

Man(a1-3)[Man(a1-6)]Man = molecular target: Man(a1-3)[Man(a1-6)]Man
Method in brief: as §1

[16] = molecular target: Man(a1-3)[Man(a1-6)]Man(a1-6)[Man(a1-2)Man(a1-3)]Man(b1-4)GlcNAc(b1-4)GlcNAc
Method in brief: as §1

[17] = molecular target: Man(a1-3)[Man(a1-6)]Man(a1-6)[Man(a1-3)]Man
Method in brief: as §1

[18] = molecular target: Man(a1-3)[Man(a1-6)]Man(a1-6)[Man(a1-3)]Man(b1-4)GlcNAc(b1-4)GlcNAc
Method in brief: as §1

[19] = molecular target: Man(a1-3)[Man(a1-6)]Man(b1-4)GlcNAc(b1-4)GlcNAc
Method in brief: as §1

Man(a1-6)Man = molecular target: Man(a1-6)Man
Method in brief: as §1

B1: GALT1 115 D492A (Arabidopsis thaliana), Q8L7F9 (protein)
chain: DPMRGSHHHHHHGMASMTGGQQMGRDLYDDDDKSRLQKPYITAAASVVVTPNTTLPMEWLRITLPDFMKEARNTQEAISGDDIAVVSGLFVEQNVSKEEREPLLTWNRLESLVDNAQSLVNGVDAIKEAGIVWESLVSAVEAKKLVDVNENQTRKGKEELCPQFLSKMNATEADGSSLKLQIPCGLTQGSSITVIGIPDGLVGSFRIDLTGQPLPGEPDPPIIVHYNVRLLGDKSTEDPVIVQNSWTASQDWGAEERCPKFDPDMNKKVDDLDECNKMVGGEINRTSSTSLQSNTSRGVPVAREASKHEKYFPFKQGFLSVATLRVGTEGMQMTVDGKHITSFAFRDTLEPWLVSEIRITGDFRLISILASGLPTSEESEHVVDLEALKSPTLSPLRPLDLVIGVFSTANNFKRRMAVRRTWMQYDDVRSGRVAVRFFVGLHKSPLVNLELWNEARTYGDVQLMPFVDYYSLISWKTLAICIFGTEVDSAKFIMKTDDAAFVRVDEVLLSLSMTNNTRGLIYGLINSDSQPIRNPDSKWYISYEEWPEEKYPPWAHGPGYIVSRDIAESVGKLFKEGNLKMFKLEDVAMGIWIAELTKHGLEPHYENDGRIISDGCKDGYVVAHYQSPAEMTCLWRKYQETKRSLCCREW
In the case of B1, the “glycan array binding signal (z-score)” value (GlcNAc(b1-4)GlcNAc) is reported as -0.112, the “glycan array binding signal (z-score)” value [1] is reported as -0.041 and the “glycan array binding signal (z-score)” value [2] is reported as -0.2. For the same binder, the “glycan array binding signal (z-score)” value [3] was -0.17, the “glycan array binding signal (z-score)” value [4] was -0.307 and the “glycan array binding signal (z-score)” value [5] was -0.065. The “glycan array binding signal (z-score)” value (GlcNAc(b1-6)GalNAc) was 0.202, the “glycan array binding signal (z-score)” value (GlcNAc3Prop(b1-4)GlcNAc) was -0.256 and the “glycan array binding signal (z-score)” value [6] was -0.344. For the same binder, the “glycan array binding signal (z-score)” value (Kdn(a2-3)Gal(b1-3)GalNAc) was 0.03, the “glycan array binding signal (z-score)” value (Kdn(a2-3)Gal(b1-3)GlcNAc) was 0.815 and the “glycan array binding signal (z-score)” value (Kdn(a2-3)Gal(b1-4)Glc) was -0.153. For the same binder, the “glycan array binding signal (z-score)” value (Kdn(a2-3)Gal(b1-4)GlcNAc) was 0.127, the “glycan array binding signal (z-score)” value [7] was -0.228 and the “glycan array binding signal (z-score)” value (Kdn(a2-6)Gal(b1-4)GlcNAc) was -0.152. The “glycan array binding signal (z-score)” value [8] was 0.15, the “glycan array binding signal (z-score)” value [9] was 0.111 and the “glycan array binding signal (z-score)” value (Man(a1-2)Man(a1-3)Man) was -0.159. The “glycan array binding signal (z-score)” value [10] was -0.381, the “glycan array binding signal (z-score)” value [11] was 0.198 and the “glycan array binding signal (z-score)” value [12] was -0.311. For the same binder, the “glycan array binding signal (z-score)” value [13] was -0.242, the “glycan array binding signal (z-score)” value [14] was -0.093 and the “glycan array binding signal (z-score)” value [15] was -0.076. For the same binder, the “glycan array binding signal (z-score)” value (Man(a1-3)[Man(a1-6)]Man) was -0.244, the “glycan array binding signal (z-score)” value [16] was 0.404 and the “glycan array binding signal (z-score)” value [17] was -0.092. For the same binder, the “glycan array binding signal (z-score)” value [18] was -0.151, the “glycan array binding signal (z-score)” value [19] was -0.126 and the “glycan array binding signal (z-score)” value (Man(a1-6)Man) was -0.266.
